Values marked as one replicate rest on one cluster of the flow cell; about a third of the high ones do not repeat.
The sequences below were run on ATP (assay: switch fluorescence ratio, 500 uM ATP over buffer (Cy3 cluster intensity, sum of 5 cycles each) (fold (ratio)); higher = stronger signal-on switching upon ATP binding; sequences stand for … in TCGTCGGCAGCGTCAGATGTGTATAAGAGACAGTTTTTTTTTTTTTTTTTTTTTTTTT…TC). Details: aptamer strand: ATP DNA aptamer (quencher-CACCTGGGGGAGTATTGCGGAGGAAGG + anchor), 100 nM annealed; ATP concentration: 500 uM; one replicate.
In short: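 After annealing to 100 nM quencher-labelled ATP aptamer, Cy3-labelled switching-strand clusters on a modified Illumina MiSeq flow-cell were imaged in selection buffer. A second image followed after 15 min with 500 uM ATP at 22 °C, and five such buffer/ATP cycles were done, each separated by NaOH stripping and re-annealing. The fluorescence ratio, averaged per switch-domain sequence, is summed target-cycle over summed buffer-cycle Cy3 intensity per cluster, with clusters outside 100-1000 RFU excluded.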
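Also: ATP exposure 15 min at 22 °C before imaging.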

Sequence | switch fluorescence ratio
ACGTTCAGTT | 0.972
ACGTTCATCT | 1.02
ACGTTCCCTC | 1.11
ACGTTCTACA | 1.2
ACGTTGGTC | 1.07
ACGTTTCATG | 1
ACGTTTGAAG | 1
ACGTTTGCGG | 1.04
ACGTTTTCTT | 1.02
ACTAAGGTTA | 1.01
ACTAATACCA | 1.05
ACTACAGCCC | 1.2
ACTACATCCG | 1.25
ACTACCATCA | 1.15
ACTACTTGTT | 1.01
ACTAGCGTAC | 2.4
ACTAGGCAGG | 1.09
ACTAGTCCGA | 1.02
ACTAGTCCGT | 1.03
ACTAGTGGAC | 1.04
ACTATGGGA | 0.979
ACTATGTAAT | 1.02
ACTATTCT | 1.12
ACTATTTAT | 0.938
ACTCAAAATT | 1.09

Sequence | switch fluorescence ratio
ACTCAGAGGA | 1.06
ACTCAGATAG | 1.06
ACTCAGCCAT | 2.27
ACTCAGCCGA | 1.15
ACTCAGTAGC | 1.12
ACTCCAGGGA | 1.6
ACTCGCAGCG | 1.08
ACTCGCTGCC | 1.2
ACTCGGGGCC | 0.994
ACTCGTCGTA | 1
ACTCTAGTGT | 1.06
ACTCTCTTCT | 1.05
ACTCTGAACG | 1.1
ACTCTTTCAG | 0.979
ACTCTTTCGT | 1.03
ACTCTTTTTT | 1.03
ACTGAATTGT | 1
ACTGACTTAG | 1.11
ACTGATCTAT | 0.992
ACTGATGCTT | 1.03
ACTGCACTCT | 1.26
ACTGCATGCA | 1
ACTGCATTAT | 1.23
ACTGCCCGGA | 1.06
ACTGCCGCTG | 1.23

Sequence | switch fluorescence ratio
ACTGGAAACA | 1.01
ACTGGGATAT | 1.04
ACTGGGCAGG | 1.02
ACTGGGCCCA | 1.06
ACTGGGGGG | 1
ACTGGTACTT | 1.12
ACTGGTAGTG | 1.01
ACTGTACCCC | 1.6
ACTGTAGGTT | 1.05
ACTGTCAAAG | 0.999
ACTGTGAC | 1.24
ACTGTGACGC | 1.28
ACTGTGGCT | 1.03
ACTGTGGGT | 1.01
ACTGTTACTG | 1.38
ACTGTTCGC | 1.09
ACTGTTGCCA | 0.984
ACTGTTTCAA | 0.984
ACTGTTTCCG | 1.03
ACTGTTTCTA | 0.976
ACTTAAAAGA | 1.04
ACTTAAGATT | 1
ACTTAATGGA | 1.04
ACTTACCGTC | 1.12
ACTTACTAT | 1.13

Sequence | switch fluorescence ratio
ACTTAGCTAA | 1.09
ACTTAGGATC | 1.07
ACTTAGGTTA | 1.06
ACTTAGTAGG | 0.992
ACTTAGTATT | 1.03
ACTTATAGCC | 1.03
ACTTCAACGA | 1.08
ACTTCACTTT | 1.31
ACTTCAGGTG | 5.18
ACTTCATGAA | 1.09
ACTTCCAGCG | 1.56
ACTTGAAGT | 1.02
ACTTGATAAA | 1
ACTTGCATTC | 1.71
ACTTGGACAA | 1.06
ACTTGGACCG | 1.06
ACTTGGGGAA | 0.936
ACTTGGTACC | 1
ACTTTAACGC | 1.07
ACTTTACCAG | 1.42
ACTTTATGCC | 1.02
ACTTTCAT | 1.06
ACTTTGTTTG | 1.02
ACTTTTAAGC | 1.03
ACTTTTCGCT | 1.02

— the supplement of paper PMC10126150
